Survival data for 56 molecules are collected here from PubChem BioAssay AID463173 (ICCB-Longwood Screening Facility, Harvard Medical School, 2010).

The structures appear in SMILES notation. The campaign covered roughly 52,000 compounds. About 1,700 (3.3%) were called active. Rule as the data show it: active = survival mostly below about 52% (no sharp cut-off); inactive = mostly above about 56%. The list shows a part of the results.

In the assay the test system is Wild type. Nature of the assay: S. aureus survival, RN4220 and DeltatarO strains – OD600, teichoic acid synthesis inhibitors, primary screen (AID 463173). The settings on record: S. aureus RN4220 wild type/DeltatarO growth, OD600, 18 h, active compounds read low, screened at 18.75 µg/mL (by protocol).
`CCc1cccc(NC(=O)COC(=O)c2cn(CC)c3nc(C)ccc3c2=O)c1`: the survival was inactive: 92%.
For `O=S1(=O)c2cccc3cccc(c23)N1Cc1ccccc1F`, the survival is inactive: 105%.
As for `COc1ccccc1C(=O)Nc1ccccc1OCc1cc(=O)n2c(C)csc2n1`, the survival is inactive: 81%.
`CC(C)c1nn2c(=O)cc(COC(=O)c3ccc(NC(=O)COc4ccccc4)cc3)nc2s1`: the survival was inactive: 68%.
For the molecule `CN(C)S(=O)(=O)N1CCNCC1`, the survival was inactive: 114%.
For `O=S(=O)(c1ccc(-c2cc(C(F)(F)F)on2)s1)N1CCN(c2ccccc2F)CC1`, the survival was inactive: 87%.
In the case of `COc1ccc(NC(=O)CN2C(=O)CCn3nc(-c4cccn4C)cc32)cc1Cl` it was inactive: 51%.
On to `CCOC(=O)c1sc2cccc(F)c2c1S(=O)(=O)NCc1ccccc1Cl`, for which the survival was inactive: 130%.
For `O=C(CS(=O)(=O)c1cccc2nsnc12)N1CCN(c2cccc(Cl)c2)CC1`, the survival is inactive: 143%.
Consider `COc1ccc(-c2cc(-c3ccccc3)c(C#N)c(SCC(O)CS(=O)(=O)Cc3ccc(Cl)cc3)n2)cc1` (stereo unspecified), for which the survival is inactive: 141%.
For `CCCN1CCN(c2ncnc3sc(C(=O)Nc4ccc(C(C)C)cc4)c(C)c23)CC1`, the survival was inactive: 69%.
As for `[O-][n+]1onc(-c2ccccc2)c1-c1ccccc1`, the survival is inactive: 109%.
Consider `COC(=O)c1ccccc1NC(=O)c1cc(-c2ccccc2O)no1`, for which the survival is inactive: 110%.
On to `CC(=O)Nc1nonc1-c1nnc(SCC(=O)Nc2ccc(C)cc2)n1-c1ccccc1`, for which the survival was inactive: 61%.
Regarding `Cc1ccc(N(CC(=O)NCCc2ccc(Cl)cc2)S(=O)(=O)c2c(C)noc2C)cc1`, the survival is inactive: 120%.
Consider `Cc1ccc(C(c2sc3nc(-c4ccco4)nn3c2O)N2CCCC2)cc1` (stereo unspecified), for which the survival is inactive: 75%.
For `COc1cccc(N2CCN(C(=O)c3ccc(C)c(NC(=O)c4nsc5ccccc45)c3)CC2)c1`, the survival is inactive: 72%.
The value for `CCN(CC)Cc1c(C(C)(C)C)oc(C)c1C(=O)O` was inactive: 109%.
Regarding `Cc1ccc(NC(=O)CN2C(=O)c3ccccc3Sc3ccc(C(=O)N4CCOCC4)cc32)cc1F`, the survival is inactive: 85%.
In the case of `Cc1cccc(NC(=O)Cn2nnc(-c3nc(-c4ccncc4)no3)c2N)c1` it was inactive: 100%; in that of `COc1ccc(CN2CCc3c(c(=O)n4ncc(C(=O)N5CCN(c6ccccc6OC)CC5)c4n3C)C2)cc1`, inactive: 69%; in that of `Cc1ccc(N2CCN(C(=O)c3nn(C)c4c3CS(=O)(=O)c3ccccc3-4)CC2)c(C)c1`, inactive: 81%.
Regarding `CCc1ccc2nc(N(Cc3cccnc3)C(=O)c3ccc(C#N)cc3)sc2c1`, the survival was inactive: 73%.
As to `CCCCC(=O)Nc1ccc2nc(SCC(=O)N3CCc4ccccc43)sc2c1`, the survival is inactive: 103%.
Regarding `CC(=O)Nc1ccc(NC(=O)c2oc3c(c2C)-c2nn(Cc4ccccc4Cl)cc2CC3)cc1`, the survival was inactive: 88%.
Consider `O=C(CCn1c(=O)c2sccc2n(Cc2ccccc2F)c1=O)NCc1ccc2c(c1)OCO2`, for which the survival is inactive: 90%.
As for `CCOC(=O)c1ccc(NC(=O)Cn2nc3c4ccccc4n(Cc4cccc(F)c4)cc-3c2=O)cc1`, the survival is inactive: 99%.
With `CCOC(=O)N1CCc2c(sc3c2c(=O)n(Cc2ccccc2)c(=O)n3CC(=O)Nc2cccc(CC)c2)C1`, the survival is inactive: 90%.
The value for `CCOc1ccc(-n2cc(-c3ccccc3)c3c(NCCc4ccccc4)ncnc32)cc1` was inactive: 74%.
Regarding `Cc1cccc(NC(=O)Cn2nc(-c3ccccc3)c3cnc4ccccc4c32)c1`, the survival is inactive: 90%.
Regarding `CCc1cccc(NC(=O)CCn2c(=O)c3cccn3c3cccnc32)c1`, the survival was inactive: 89%.
For `Cc1ccc(Nc2ccc3cc(S(=O)(=O)N4CCC(C)CC4)ccc3n2)c(Cl)c1`, the survival was inactive: 79%.
Consider `O=C(NCCc1ccccc1)c1ccc(CS(=O)Cc2ccc(Cl)cc2)o1` (stereo unspecified), for which the survival is inactive: 80%.
Consider `COc1ccc(C(=O)c2c(N)c(-c3nc(-c4ccc5c(c4)OCO5)cs3)c3ccccn23)cc1`, for which the survival is inactive: 122%.
For `O=C(CCNS(=O)(=O)c1ccc2c(c1)CCCC(=O)N2)Nc1cccc(Cl)c1`, the survival was inactive: 75%.
The value for `Cc1cc(NC(=O)CCc2nc3cccnc3n2-c2ccccc2)ccc1Br` was inactive: 59%; that for `COC(=O)Cn1c(C2CC(=O)N(c3c(C)cccc3C)C2)nc2ccccc21` (stereo unspecified) was inactive: 81%.
On to `O=S(=O)(c1ccc(C2CCCCC2)cc1)N1CCN(c2ccc(Cl)c(Cl)c2)CC1`, for which the survival is inactive: 75%.
Consider `O=C(Cn1nnc(-c2ccncc2)n1)N(C1CCCCC1)C1CCCCC1`, for which the survival was inactive: 98%.
In the case of `Nn1c(SCCC(=O)O)nnc1-c1ccccc1`, the survival was inactive: 116%.
`O=C(Nc1ccc(F)cc1F)C1CCN(c2ncccn2)CC1`: the survival was inactive: 86%.
With `CCC(c1nnnn1C1CCCC1)N1CCN(Cc2ccccc2)CC1` (stereo unspecified), the survival was inactive: 104%.
The value for `Cc1ccc(C)c(N2CCN(c3ncnc4c3nc3n4CCCC3)CC2)c1` was inactive: 128%; that for `Cc1ccccc1NC(=O)Cn1cc(C(=O)c2ccco2)c2ccccc21` was inactive: 65%.
Regarding `Cn1c(=O)c2nc(SCC(=O)Nc3ccc(OC(F)(F)F)cc3)n(C)c2n(C)c1=O`, the survival is inactive: 59%.
Regarding `COc1ccc(CC(=O)Nc2c(C(=O)N3CCN(c4ccccc4)CC3)oc3ccccc23)cc1OC`, the survival is inactive: 76%.
With `Cc1cccc(Cn2cc(S(=O)(=O)c3cccc(Cl)c3)c(=O)c3cc(F)c(N4CCOCC4)cc32)c1`, the survival was inactive: 100%.
In the case of `CCOC(=O)c1c(C)[nH]c(C)c1S(=O)(=O)N(C)CC(=O)Nc1ccc(OC)cc1`, the survival is inactive: 68%.
Consider `O=C1OCC2=C1C(c1cccc(Cl)c1)CC(=O)N2c1ccc(C(F)(F)F)cc1` (stereo unspecified), for which the survival is inactive: 70%.
As to `CCOc1ccccc1NC(=O)C1CCN(S(=O)(=O)c2c(C)noc2/C=C/c2ccco2)CC1`, the survival was inactive: 83%.
The value for `Cc1ccnc(NCc2cccc3ccccc23)c1` was inactive: 115%; that for `COc1ccc(-c2nc(CNC(=O)NC3CCCCC3)c(C)o2)cc1` was inactive: 126%; that for `COc1cc(C(CC(=O)Nc2ccc(C)c(F)c2)N2Cc3ccccc3C2=O)cc(OC)c1OC` (stereo unspecified) was inactive: 66%.
As for `CCN(CC)c1ncnc2c1cnn2-c1cc(Cl)ccc1C`, the survival is active: -6%.
The value for `O=C(CCn1c(=O)c2ccccc2n(CC(=O)Nc2cccc(F)c2)c1=O)NCCc1ccccc1` was inactive: 73%.
`COc1ccc(OC)c(CNC(=O)c2ccc(N3Cc4ccccc4Oc4ncccc43)s2)c1`: the survival was inactive: 99%.
